{
  "source": "paper PMC12136788",
  "binders": {"B1": {"name": "chrX:141883135:141883136:-_ENSMUSG00000041688_ENSMUST00000112835|mus_mus|FALSE|FALSE (ssRNA)", "RNA": "GGGAGUUCUACAGUCCGACGAUCCUUGCAUCAAUCUGAUUUCUAACUUAACACAUCUCUAAACGUCUAUCUCCCUUACCUAAUACCCUCCCACCCUUAACUUCCCUAGACCCCUGAAAACUCAUCUUAAUGGUACUAUCUGUACAACAGAGGAUUGAGCAUCA"}, "B2": {"name": "chr4:40633508:40633509:-_ENSMUSG00000028411_ENSMUST00000129021|mus_mus|FALSE|FALSE (ssRNA)", "RNA": "GGGAGUUCUACAGUCCGACGAUCGAAGAAGUGUACGCUUUAGUUCAGGAUUGAACGGAGCAUAGGCAAUGCGGACAGAUGCUAGCACUGCCCUUGGUCGCCGAGACGAGUGUCACCCGCCCCAGUGCUUCCUGAGGUGCUCUUCAACAGAGGAUUGAGCAUCA"}, "B3": {"name": "114973512_114976336_1086_CDS_ENSG00000197323_ENST00000358465|human|control|control (ssRNA)", "RNA": "GGGAGUUCUACAGUCCGACGAUCAGUCUCAUUUACUUCUUUUAUCCUAUUCUGCACCUGAGUAGCUGCAAAAUGAACAUAAUUCUUCUUCUCAAGAAGUUUCGCCAGUAGAUUCUCAAUUGCACCCUUCUGAUUUUGAAAAGCCAACAGAGGAUUGAGCAUCA"}, "B4": {"name": "33700149_33700269_704_3pUTR_ENSMUSG00000027677_ENSMUST00000099153|mouse|control|control (ssRNA)", "RNA": "GGGAGUUCUACAGUCCGACGAUCAAACAGAUCAACACCAUGAAAAAACCAAACUCCCGAAUAGAGCUAAUUCUUCCAAUCACUAUAUCACCACGUUCAAUAUCUCGGAAGAAGAGCUCUCUCCGGUCCAUGCUUGGCAUCUCCCAACAGAGGAUUGAGCAUCA"}, "B5": {"name": "chr1:163112212:163112213:-_ENSG00000143248_ENST00000313961|hu_hu|hu_hu_hu_mus_False|18_18 (ssRNA)", "RNA": "GGGAGUUCUACAGUCCGACGAUCUUUUAUUAUCAGUAAGAGUGAGUUACAUACUAGGCAAAGUAUUGGAUACAAUAAUCAGGAAACAAACACUAUUGGUCCAGAAUUUAAAACUUUUGGGAUAAAUUGCUGGCACAGGACUUACAACAGAGGAUUGAGCAUCA"}, "B6": {"name": "79510595_79510715_177_CDS_ENSG00000171033_ENST00000352966|human|control|control (ssRNA)", "RNA": "GGGAGUUCUACAGUCCGACGAUCACUUGCAGAGGAAACCAGGAUAUCAUGUAUUGCAUUUCUUCUACCUGUUCUUCCUGAAGCAAUAAAAUCUGCAUAUGUAGUUUCCACAUCAGUCAUUGCUACCAAAUAUCCACAUAGCAGCAACAGAGGAUUGAGCAUCA"}, "B7": {"name": "chr5:128448638:128448639:+_ENSG00000066583_ENST00000173527|hu_mus|hu_hu_hu_mus_False|48_68 (ssRNA)", "RNA": "GGGAGUUCUACAGUCCGACGAUCGGCACUCGCCUUAAUUAGGUUCUGAAUUUCCUUGAACUUCGGGUGGUCCUUAUCAGCCACCAGCUGAAGCAGAACAGCCUCACUAGUGGUCACGAUGAUCCCAGUGCGGGCAAGACGCUCCAACAGAGGAUUGAGCAUCA"}, "B8": {"name": "chr4:53728692:53728693:+_ENSG00000128045_ENST00000248706|hu_hu|FALSE|FALSE (ssRNA)", "RNA": "GGGAGUUCUACAGUCCGACGAUCACAGCAGUCGGAGGCCGCGGCGUUGCCCGGCGCGGGGUACUCGGCGAUGGUGCACAUGUUCUGAAUGAGGCGCAUCGCCUCGGCUGCGGCGCACCGCGCGGGAAGGGACUGAGGGACUGGCAACAGAGGAUUGAGCAUCA"}, "B9": {"name": "chr1:163116108:163116109:-_ENSG00000143248_ENST00000313961|hu_hu|motif|central (ssRNA)", "RNA": "GGGAGUUCUACAGUCCGACGAUCGUACCUUAAAAGUGUCUCACCUAGAAGGCCUCUACCUGUAAUCACAUUAAUUUUUCGGAAGACAAUUUGGUGUUUUGAAGAUAAAUGUCAUUAGUCUAUGAUAAUAGCAUCAUAGGACAACAACAGAGGAUUGAGCAUCA"}, "B10": {"name": "chr8:47717725:47717726:+_ENSMUSG00000031628_ENSMUST00000093517|mus_mus|motif|central (ssRNA)", "RNA": "GGGAGUUCUACAGUCCGACGAUCGAAGUUCUUAUUAUUAAUUAUUAUGCAUAUGCCCAUUUCAGGAUAAUCCAUUUUGUAACGGCUGUCCAGAUAGAUCCCAGAGUCCACUGACUUGCUCCCAUGUAUGGUCUUUACUUCAAACAACAGAGGAUUGAGCAUCA"}, "B11": {"name": "72621507_72622045_3609_CDS_ENSMUSG00000002341_ENSMUST00000002412|mouse|control|control (ssRNA)", "RNA": "GGGAGUUCUACAGUCCGACGAUCUGCUGGAGGGGGACCACACAGCACUGUACCCUUCUUGCAGACAUAGGGUAGGUUGUAGUUGCAGGGGACAUCAUUCCAGCGCCCACUCUCAUGUGCCACCAUCACCACACAAUCCUCCCCCAACAGAGGAUUGAGCAUCA"}, "B12": {"name": "118491051_118492415_1553_CDS_ENSG00000065183_ENST00000349139|human|control|control (ssRNA)", "RNA": "GGGAGUUCUACAGUCCGACGAUCGAAUUUGACAGAUUUAUCUGCACCACCUGUCACAAAGCCACGCUGAUCUGGAGAGAGGGACAUGGACCACAAAGCUCCAUCAUGUGCAUCUAUUGUCUCCAGCAGAUUCCCUGAAGCCAACAACAGAGGAUUGAGCAUCA"}, "B13": {"name": "chr3:105770834:105770835:+_ENSMUSG00000000561_ENSMUST00000010278|mus_mus|FALSE|FALSE (ssRNA)", "RNA": "GGGAGUUCUACAGUCCGACGAUCACAGGAAAACACUCAUCUCUCACACACAACACCAAGGAAGGAAAGGGUGAACAAGAGCUACACUGCAGGGCCAAAUUUAUUCACCCAGAAAAUGGAUUUGACUCAGUAUAACAGGGACUUCAACAGAGGAUUGAGCAUCA"}, "B14": {"name": "chr4:47850210:47850211:-_ENSG00000170448_ENST00000381538|hu_mus|FALSE|FALSE (ssRNA)", "RNA": "GGGAGUUCUACAGUCCGACGAUCUAUGUCAGGAGAUUUAAAGGAUCAUUAAUCCACACCAUGGAAGAUGUACCACAUAAGCACUGCCACCACAACUGCACACACGGGAAGGAGGUAGGACUUAUACUUCUGCCAAGGCGAGAGCAACAGAGGAUUGAGCAUCA"}, "B15": {"name": "chr4:76721835:76721836:+_ENSG00000138768_ENST00000264904|hu_mus|hu_hu_hu_mus_True|8_8 (ssRNA)", "RNA": "GGGAGUUCUACAGUCCGACGAUCGUUUGGCUGGGGUUUCUGAGACGCUCUGGAAUAUAACUCAUGUUUGCUAAUAAAUCCUAGUUUCUCUAUGAAAUUCUCUUUGCCAAUCCUCUUCUCUAUUAGUGUUUUAGCUUUCUCUUUCAACAGAGGAUUGAGCAUCA"}, "B16": {"name": "chr8:74858975:74858976:-_ENSG00000154582_ENST00000284811|hu_mus|hu_hu_hu_mus_True|68_68 (ssRNA)", "RNA": "GGGAGUUCUACAGUCCGACGAUCGACCUUGUAGGUAAAAUACAUGCACACUUUUGAUAGCACAUGUGAAGGUAUCUCUCUAAAAUUGACCUCGUUGGUUUCAUUCUCAGCAAACUGACCUGGACCACUCAACAUAGCCUUUAUCAACAGAGGAUUGAGCAUCA"}, "B17": {"name": "47484838_47484958_827_CDS_ENSMUSG00000039740_ENSMUST00000044148|mouse|control|control (ssRNA)", "RNA": "GGGAGUUCUACAGUCCGACGAUCGUGCUCCACGUUCUCCGGGAUCCUAUCGUCAUAACCACCGGCCAUGAAGAGAUGAACCUUAUCCCACUCUUGAGAUGGUAACCGAUUCCGAAGCUGCACCAAGGAUCUCAGUGCCAAGGGCAACAGAGGAUUGAGCAUCA"}, "B18": {"name": "chr3:105482444:105482445:-_ENSMUSG00000027905_ENSMUST00000090680|mus_mus|FALSE|FALSE (ssRNA)", "RNA": "GGGAGUUCUACAGUCCGACGAUCUUUCACAGGAAGCUUUGGUUUGCUGUGCUUUGGCCUGGCUGACAGUGCAGAUGCAGAAGUAUUUCUAGGGGAAGGCGUUUGGUUCCCAGGCGUUCUUUGAGACUGGAAGGCUCUCUCUAGCAACAGAGGAUUGAGCAUCA"}, "B19": {"name": "chr9:15453159:15453160:+_ENSG00000164975_ENST00000490969|hu_mus|FALSE|FALSE (ssRNA)", "RNA": "GGGAGUUCUACAGUCCGACGAUCAUGGUGCACAAGCCUUAUGUCUGUGAUGACAACAACAUGCUCACAGUCUCCCUGGUGACAGUAUAAGUAAGGAAAGCCAAGUUUAAUAUGCAAGUCAUUAAAUGUGAAAUCUUCCAUUCUCAACAGAGGAUUGAGCAUCA"}, "B20": {"name": "chr1:244855233:244855234:+_ENSG00000121644_ENST00000302550|hu_mus|hu_hu_hu_mus_True|28_108 (ssRNA)", "RNA": "GGGAGUUCUACAGUCCGACGAUCCAUUAAAUGAUAAGCGUUGCCCUUAUACUCUUUCCCCAGUUCUUCUACAAUUUUCUCUAUAUCAUCUUCUAGAAAGUCCGUACUCCCUAAAACAACAGCUUCUUUAAAUUUAAAUGUUUCCAACAGAGGAUUGAGCAUCA"}, "B21": {"name": "chr11:4127340:4127341:+_ENSG00000167325_ENST00000300738|hu_mus|hu_hu_hu_mus_False|58_98 (ssRNA)", "RNA": "GGGAGUUCUACAGUCCGACGAUCGGCAUAGUCAGGGUGCUUAGUAGUCAAGGUCGCGGCUGUCUCAGCAGCCAGGGUAUCUAGUUCCACUGUGGUGACCCCACUAUAUAGGCCUUGGAUUACUUUCAUGGUGAUCUGAGCAGGCAACAGAGGAUUGAGCAUCA"}, "B22": {"name": "chr19:15271381:15271382:-_ENSG00000074181_ENST00000263388|hu_mus|FALSE|FALSE (ssRNA)", "RNA": "GGGAGUUCUACAGUCCGACGAUCUACAAGACAGAGAGGUGCAGGAAGGCUGGGACAGAGAGAAAGGGAUGAGAGUAAGAUUAAAAAGGAGGAAGAAAGAAGUCAUAGAGGAGUGUCACUUCAGCACCCCUCAAAUCCAAGAACCAACAGAGGAUUGAGCAUCA"}},
  "note": "This is one part of the list.",
  "data": [
    {"target": "T1, UNK ZnF1-3 (human, UniProt Q9C0B0 31-174)", "T1 sequence": "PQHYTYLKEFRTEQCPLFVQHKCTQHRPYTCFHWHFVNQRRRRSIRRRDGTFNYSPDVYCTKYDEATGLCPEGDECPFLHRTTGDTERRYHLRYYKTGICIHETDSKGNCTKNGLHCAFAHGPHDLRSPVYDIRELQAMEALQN", "test": "nsRBNS (natural sequence RNA bind-n-seq); RBNS binding buffer (assumed for nsRBNS): 25 mM Tris pH 7.5, 150 mM KCl, 3 mM MgCl2, 0.01% Triton X-100, 500 ug/ml BSA, 20 U/ml SUPERase-In, 4 C; UNK is unkempt and MSI1 is Musashi-1; names of the RNAs are library labels; protein concentration not given here; high values mean tight binding", "units": {"binding signal": "enrichment R"}, "values": [
      {"binder": "B1", "binding signal": 2.03},
      {"binder": "B2", "binding signal": 0.571},
      {"binder": "B3", "binding signal": 0.695},
      {"binder": "B4", "binding signal": 0.442},
      {"binder": "B5", "binding signal": 1.29},
      {"binder": "B6", "binding signal": 0.891},
      {"binder": "B7", "binding signal": 0.618},
      {"binder": "B8", "binding signal": 0.962},
      {"binder": "B9", "binding signal": 1.41},
      {"binder": "B10", "binding signal": 1.15},
      {"binder": "B11", "binding signal": 1.15},
      {"binder": "B12", "binding signal": 1.32},
      {"binder": "B13", "binding signal": 1.73},
      {"binder": "B14", "binding signal": 0.937},
      {"binder": "B15", "binding signal": 0.532},
      {"binder": "B16", "binding signal": 0.796},
      {"binder": "B17", "binding signal": 0.96},
      {"binder": "B18", "binding signal": 0.868},
      {"binder": "B19", "binding signal": 1.08},
      {"binder": "B20", "binding signal": 1.43},
      {"binder": "B21", "binding signal": 0.766},
      {"binder": "B22", "binding signal": 2.78}
    ]}
  ]
}
